Data as given in PubChem BioAssay AID485344 (National Center for Advancing Translational Sciences (NCATS), 2010).
About 6,900 (2%) of roughly 340,000 compounds were called active. Cut-off read from the data, not from the text of the source: active = inhibition above about 30%; inactive = below that, where a call was filed. This is a selection; strong and weak results do not stand in their true shares. Where no call is shown, the source filed none.

target: D(2) dopamine receptor (Homo sapiens) (UniProt P14416); experiment: HTS Assay for Allosteric Antagonists of the Human D2 Dopamine Receptor: Primary Screen for Antagonists; details: HEK293 TREx D2 cells, calcium flux, dopamine EC80; at 10 µM; stronger effect = higher value; note: 0% is about no effect
UniProt P14416, sequence (P14416 whole entry, looked up): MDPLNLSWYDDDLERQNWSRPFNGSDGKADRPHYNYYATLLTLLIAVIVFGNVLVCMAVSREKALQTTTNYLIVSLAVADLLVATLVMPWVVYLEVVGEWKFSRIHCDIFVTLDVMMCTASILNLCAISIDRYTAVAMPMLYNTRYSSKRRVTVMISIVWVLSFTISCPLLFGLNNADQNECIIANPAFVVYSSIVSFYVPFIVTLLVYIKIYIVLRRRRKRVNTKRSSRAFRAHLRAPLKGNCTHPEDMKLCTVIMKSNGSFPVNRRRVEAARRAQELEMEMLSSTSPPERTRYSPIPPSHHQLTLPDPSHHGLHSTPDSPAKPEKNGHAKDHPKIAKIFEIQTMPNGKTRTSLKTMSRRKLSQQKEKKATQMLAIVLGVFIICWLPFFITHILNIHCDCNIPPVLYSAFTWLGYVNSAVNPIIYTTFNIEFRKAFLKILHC
Procedure, shortened: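 Calcium flux kinetic readout in an inducible HEK293 TREx D2 line plated overnight at 30 C. After 180 s compound exposure, an EC80 dopamine challenge follows with another 180 s kinetic read to detect antagonism.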

Point of comparison: `COc1ccc(CCNC(=O)c2ccc(CS(=O)(=O)Cc3cccc(C)c3)o2)cc1OC`, inhibition -16%. Against it:
- O=C(NC1CCCCCC1)c1ccc2c(c1)sc1nc(-c3ccccc3)cn12 — higher, 11.9%
- C=C(C)CSc1nc2sc3c(c2c(=O)n1-c1ccccc1)CCC(C)C3 (configuration not stated) — higher, -4.66%
- CCN1CCN(c2ncnc3c2cnn3-c2ccc(C)cc2)CC1 — higher, 8.9%
- CCOc1ccc(NC(=O)CSc2cn(CC(=O)N3CCCCCC3)c3ccccc23)cc1 — higher, 0.6%
- COc1ccc(-c2n[nH]c3c2C(c2ccc(O)cc2)N(c2ccc(Br)cc2)C3=O)cc1 (configuration not stated) — higher, 4.66%
- Cc1ccc(CNC(=O)C(=O)NCC(c2ccco2)S(=O)(=O)c2cccs2)cc1 (configuration not stated) — higher, -0.296%
- CCN1CCN(C(c2ccc(F)cc2)c2c(O)cc(C)n(CCOC)c2=O)CC1 (configuration not stated) — higher, 6.03%
- CCc1cccc2c(-c3ccc(F)cc3)nc(SCC(=O)Nc3ccccc3)nc12 — lower, -19.9%
- CC(C)CCNC(=O)C1CCN(C(=O)N2CCOc3ccc(Cl)cc32)CC1 — higher, -5.13%
- COc1ccc(C(=O)Nc2ccc(-c3cc4ccccc4oc3=O)c(C)c2)cc1OC — higher, 11.3%
- O=C(C1CCC(Cn2c(=O)c3sccc3n(Cc3cccc(F)c3)c2=O)CC1)N1CCCCC1 (configuration not stated) — higher, 11.5%
- O=C(NCCc1ccccc1)C(=O)NCC(c1cccnc1)N1CCN(c2ccccc2F)CC1 (configuration not stated) — higher, -6.34%
- COc1ccccc1Nc1nn2c(=O)c3ccc(C(=O)NCc4ccc(F)cc4)cc3nc2s1 — higher, -11.6%
- COc1ccc(NC(=O)c2c(C)oc3ccc(O)c(CN4CCC(C)CC4)c23)cc1 — higher, 12.4%
- COc1cccc(OCC(=O)NCCS(=O)(=O)N2CCN(c3ccccc3F)CC2)c1 — higher, -3.84%
- Cc1oc2ncn(CC(C)C)c(=O)c2c1C(=O)NCCc1ccccc1 — higher, -9.38%
- Cc1ccc(-c2nc(CNC(=O)Nc3ccccc3)c(C)o2)cc1 — higher, -5.19%
- COc1ccc(-c2cn3cccnc3n2)cc1NC(=O)Cc1ccccc1 — higher, 4.01%
- CCc1nc2cccnc2n1-c1ccc(CC(=O)Nc2c(C)cccc2C)cc1 — higher, -1.49%
- CCN(CC)C(=O)CSc1nc2ccsc2c(=O)n1Cc1ccccc1Cl — higher, 3.1%
- Cc1cc(C)n2c(Nc3ccc(C(C)C)cc3)c(-c3ccsc3)nc2n1 — higher, -12.4%
- Cc1ccc2c(c1)-c1c(cnn1CC(=O)N1CCN(c3ccccc3F)CC1)CO2 — higher, -5.96%
- CCCCN(CCCNC(=O)CN1N=C(c2ccc(C)cc2)CCC1=O)c1ccccc1 — higher, 0.312%
- CCN(CC)CCCNC(=O)CCCn1ncn2c(cc3occc32)c1=O — higher, 2.28%
- Cc1c(-c2cccc(NC(=O)Nc3ccc(Cl)cc3)c2)nc2ncccn12 — lower, -20.3%
- COc1ccccc1-c1noc(-c2ccc(NC3CCCCC3)c([N+](=O)[O-])c2)n1 — higher, 10.8%
- CC1CCCCN1C(=O)Cn1ncc2c3ccccc3n(Cc3ccccc3F)c2c1=O (configuration not stated) — higher, -3.9%
- COc1ccc(CN(C(=O)c2cc3ccccc3oc2=O)C2CCS(=O)(=O)C2)cc1OC (configuration not stated) — higher, 8.2%
- c1ccc(-c2noc(-c3cccnc3NCc3ccco3)n2)cc1 — higher, 5.29%
- Cc1ccc(NC(=O)Cn2c(=O)oc3cc(S(=O)(=O)N4CCCCC4)ccc32)c(Cl)c1 — higher, -6.61%
- Cc1cccc(Cn2c(SCc3ccc(C(=O)NCc4ccccc4F)cc3)nc3ccncc32)c1 — higher, 9.71%
- O=C(Nc1ccc(Cl)cc1F)c1cnc2sc(N3CCOCC3)nn2c1=O — higher, 14.2%
- COCCCN1C(=O)c2ccccc2CC1(C)C(=O)NC1CCCCC1 (configuration not stated) — higher, 11.3%
- COc1ccc(C2C(C(=O)Nc3ccc(Cl)cc3)=C(C)Nc3nc(SCc4cccc(C)c4)nn32)cc1OC (configuration not stated) — higher, -0.174%
- CC(C)(C)OC(=O)N1CCC(c2c(C(=O)N3CCN(c4ccccn4)CC3)cnn2-c2ccccc2)CC1 — higher, 4.83%
- COc1ccccc1CNc1cc(C)nc2nc(-c3ccc(C)cc3)nn12 — higher, 1.99%
- COc1ccc(-c2nc(C)c(CCNC(=O)c3cccs3)s2)cc1OC — higher, 10.1%
- Cc1ccc2nc(NC(=O)CSc3nccn3-c3ccc(Cl)cc3)sc2c1 — higher, 15.3%
- COc1ccc(-n2c(SCC(=O)N3CCc4ccccc43)nc3c([nH]c4ccccc43)c2=O)cc1 — higher, 0.216%
- COc1ccc(C(=O)Nc2ccc3oc(-c4ccc(F)cc4Cl)nc3c2)cc1 — higher, 7.44%
- CCc1ccc(CNC(=O)c2cc3ccccn3n2)cc1 — higher, -8.08%
- CCOC(=O)C1CCCN(C(=O)Cn2ncc3c(C)n(Cc4ccccc4Cl)c(C)c3c2=O)C1 (configuration not stated) — higher, -11.6%
- CCCc1nc2ccccc2n1CC(O)COc1ccc(C(=O)OC)cc1 (configuration not stated) — higher, 22.9%
- Cc1ccc(CNc2oc(-c3ccc(COc4ccc(C)cc4)o3)nc2C#N)cc1 — lower, -17.3%
- Cc1ccc(NC(=O)c2c(C)nc3sc(C(=O)Nc4ccc(F)cc4)c(N)c3c2-c2ccc(C)o2)c(C)c1 — higher, 5.07%
- CC1CN(C(=O)CCC(=O)Nc2cc(F)ccc2F)c2ccccc2S1 (configuration not stated) — higher, -0.831%
- Cc1ccc(C)c(NC(=O)Cn2c(=O)n(-c3ccc(CC(=O)NCC4CCCO4)cc3)c(=O)c3ccccc32)c1 (configuration not stated) — higher, 10.9%
- Cc1ccc(OCC(=O)NCC2(N(C)C)CCCCC2)cc1C — higher, 4.61%
- O=C(Nc1cccc(C(F)(F)F)c1)c1cc2nc(-c3ccc4c(c3)OCO4)cc(C(F)(F)F)n2n1 — higher, -4.94%

In the case of `CCOC(=O)N1CCN(C(=O)c2ccc(OCC)c(OCC)c2)CC1`, the inhibition is reported as active: 32.7%.
For `Cc1cc(OCC(=O)Nc2ccc(Br)cc2)cc2c1C(=O)CC(C)(C)O2`, the inhibition was active: 41.2%.
In the case of `S=C(Nc1ccc(Cl)cc1)NC1CC2CCC(C1)N2Cc1ccccc1` (configuration not stated), the inhibition is reported as active: 93.3%.
With `COc1ccccc1N(C)S(=O)(=O)c1ccc(C(=O)NCC2CCCCC2)cc1` the inhibition was active: 79.8%.
In the case of `Cc1csc(NC(=S)Nc2cccc(Cl)c2)n1`, the inhibition is reported as active: 32.1%.
For `CCN1CCN(c2nc(-c3ccccc3)c3ccccc3n2)CC1`, the inhibition was active: 58.8%.
In the case of `CN(C)CCCNC(=O)/C(=C\c1ccc(-c2cccc([N+](=O)[O-])c2)o1)NC(=O)c1ccccc1`, the inhibition is reported as active: 36.9%.
For `CCN(CCCc1ccccc1)CCCc1ccccc1`, the inhibition was active: 83.1%.
In the case of `Cc1ccccc1NCC(=O)N/N=C/c1c(C)c(C(=O)c2ccc(Cl)cc2)n2ccccc12`, the inhibition is reported as active: 32%.
For `CC(O)CNCCOc1ccccc1OCc1ccccc1` (configuration not stated), the inhibition was active: 45.4%.
`Cn1c(CN2CCCC2)nc2cc(NS(=O)(=O)c3ccccc3)ccc21` was tested, and the inhibition was active: 67.4%.
In the case of `COc1ccc(C2(NC(C)=O)CCN(C(=O)c3ccco3)CC2)cc1`, the inhibition is reported as active: 32.9%.
